This note sets out measurements from the RNAGym collection of RNA variant scans (doi:10.7554/elife.90254).

The source gives no read counts; variants with many changes may rest on few reads.

First the molecules themselves.
B1: OR4K15 (parent)
chain: GUUAACGGUCAUAGGCCAUGGAAACUAGGAGCACCAUUUCGCUGCCAGUGAAGAAAUGAACAAAGAAAAUCUGGGCCAGGCAGGCAUCAAAAGAAAUAGUCUUGCGCUCAACCAGAAAGUCUGUAAUCAUUUUAAGGGUA

Variants of B1 are the subject of the series. The experiment in a line: self-cleavage, relative activity (ratio to wild type); higher = more cleavage; in vitro, sequencing; the parent is a self-cleaving ribozyme.
Take C40U A60G U124A: the self-cleavage came to 0.43.

With U43A A52G A66G A118G, the self-cleavage was 0.51. Regarding U38C U49A A126U, the self-cleavage came out at 0.71. Regarding U39C U43C A47G A96G U132A, the self-cleavage is 1.75. Next, C42G A94G A129G: 1.17. Turning to U39C U43A A51G A64U, the self-cleavage was 1.72. With U39G A54U A90G, the self-cleavage turned out to be 1.1. U39C C42U A59G A67U A86G: the self-cleavage was 0.76.

As to U39G U43C G74C A86G C112U, the self-cleavage was 0.01. With U39A A78U G104A, the self-cleavage is 0. With U39A A59G A82G U108C U127C, the self-cleavage was 0. As to U38C U57C A78C G123U, the self-cleavage was 0.44.

For U38C U49C A64G U122G, the self-cleavage amounted to 1.15. In the case of U38C U43A G58A it was 1.78; in that of U39C A52U A62G A67C A91G, 1.58; in that of U39C A47U U120C G123A, 0.27.

Regarding U43A U87C A89U, the self-cleavage was 1.74.

U39C C61U U130C U132C A135U: the self-cleavage was 0.15.

Regarding U39C U70C U87C U132A, the self-cleavage came out at 0.86. Turning to U39A A69G U100C A125G G136A, the self-cleavage is 1.76. On to U39A A111U U122A A140G, for which the self-cleavage turned out to be 0.02. Take U39C A47G A63G U97C G137A: the self-cleavage is 0.08. For U39C A52G U70C G123A, the self-cleavage stood at 1.05.

On to U39A A52U A60G A110G, for which the self-cleavage is 0.19. In the case of U39A G53U A56G A82G A96G A110G it was 0.02; in that of U43A A47G A118G, 0.

Turning to U39C A51G A64G A67G A68G U122C, the self-cleavage worked out at 1.07. For C40U A54U A64G, the self-cleavage stood at 1.45. For U39C A55G U57C U102C U139C, the self-cleavage was determined as 2.24.

As to U38C U72C U122C, the self-cleavage came to 0.16. As to G41C A51G A54G U139C, the self-cleavage was determined as 1.05. For U39C U87C A118G U131C, the self-cleavage turned out to be 1.35. As to C40U A66G A95G, the self-cleavage stood at 1.9. Next, G41A A52U U130C: 1.57. As to U39G A64G A86C U132C, the self-cleavage is 0.39. Turning to U39A A95G A110U U122C, the self-cleavage came out at 1.66. In the case of U39C A55G A91G A96G, the self-cleavage came to 1.54. As to U43A A47G A51G A114U U120C, the self-cleavage is 0.05. Consider U39C A111G A117G, for which the self-cleavage is 0.01.

As to U39C A56G A60G, the self-cleavage turned out to be 0.95. As to U39C U70A U72C G75A A117G, the self-cleavage worked out at 0.12. As for U39C A64G G74A U132C, the self-cleavage worked out at 0.28. With U39A A52G U131C, the self-cleavage is 0.16. In the case of U38G C46U A60G C61U A67G A89G it was 1.61; in that of U39C U100C U132C, 2.92; in that of U39A A90G A110G, 0.18. Next, U39C U57C A63G U72A: 0.5; C42U A82C A126U: 0.36; U39C A94G U131C: 0.67. Regarding U39C A117G A129U A134G, the self-cleavage is 0.94. Next, U43A A60G A69G: 1.16. As to G41U A67U U97A, the self-cleavage is 1.28. In the case of U38G U103C A111G it was 0.02. With C40A A59G A92G U120C A125G A129G, the self-cleavage turned out to be 0.11.

Consider U39C A67U A82U U131C U132A, for which the self-cleavage amounted to 0.11. For U39C U43C A67G, the self-cleavage was 0.75. Consider U39C A51G A60G, for which the self-cleavage stood at 0.66. With U39C A47G G74A, the self-cleavage turned out to be 0.24. Turning to U39C U57C A60G U130C, the self-cleavage worked out at 1.38.

Take U39C A47G A95G U131C: the self-cleavage is 1.79.

For the variant U43A A51G A110G, the self-cleavage came to 0.08.

Turning to U39G U49C A54G A69G, the self-cleavage came out at 1.12. In the case of U39A A54G A86G U102A A114U it was 0.01. As to U39C U49A A96G, the self-cleavage came to 1.97. U39A A47G G74A U87A: the self-cleavage amounted to 0.3. For the variant U39C G48A A114U U132C A134G, the self-cleavage worked out at 0.01. Next, U43A A78G U103A: 0.11; C42A A68G A89G U131C: 0.32; U38C U43C U87C A92G: 1.09. For the variant U39C A62G U127C, the self-cleavage turned out to be 0.81. On to U39C A47G A78G U100C A114G, for which the self-cleavage was 0.09. U43A A54G A55G A64G: the self-cleavage was 1.3. On to U39C A96G G106A A114G U127A, for which the self-cleavage amounted to 0. As for C42U A64G U108C, the self-cleavage came to 0.02. Next, U39C A78C A96U: 0.45; U43A A62G A89C A92G A111G: 0; U39C U43C U49C G53A U108C A117G: 0.01. As for U38C U39C U70C C81U, the self-cleavage was determined as 0.21.

Turning to U39C A68G U103A, the self-cleavage is 0.71. For the variant U38C U57C A63U, the self-cleavage turned out to be 1.22. Regarding U39C U70C U139C, the self-cleavage amounted to 1.38. Regarding U39A A47G A94G A126G, the self-cleavage was found to be 0.87. As for U39C U70C G136A, the self-cleavage was found to be 1.36. U39C A55G A118G: the self-cleavage worked out at 2.25. Next, U38C U49A A117U: 0.86; U39C A66G G74U: 0.21. For the variant U43A A64G A67G A82G, the self-cleavage was 0.57. U39C U97A U122A: the self-cleavage is 2. Consider U39C A52G A67G U102A A140U, for which the self-cleavage came out at 1.23. Take U39C U72C A117G U127A U130C U132A: the self-cleavage stood at 0.11. Regarding U39C A66G A126G, the self-cleavage came to 0.39. In the case of C42A A91G U100C, the self-cleavage was 2.47. U39C G65A C85A: the self-cleavage turned out to be 1.26.

For the variant G41A A47G A59G, the self-cleavage came out at 0.8.

With U39C A56G A116G, the self-cleavage came to 0.63. In the case of U38C U43A A118G U139A it was 1.03. With U39A A82G A135G, the self-cleavage came out at 0.76. For the variant U39C A47U A125G, the self-cleavage amounted to 0.32. Next, U39A A67G A116G: 1.18; U38C U43C C46A A68G: 1.37; U38C U127A A129G: 0.9.

For U38C U43C A52G, the self-cleavage is 1.06. As for C40U A67G G123U, the self-cleavage was determined as 1.92. In the case of U38C U49C A66G U131C it was 0.97; in that of U39C A66C U108C, 0.02; in that of U38G A67U A91G U102C, 1.91. For G41A A64U A94G C128A A134G, the self-cleavage amounted to 0.74. As to C40U U57C U70C A89U, the self-cleavage amounted to 0.4. In the case of U39C U43A G48A A52U A63G A66G it was 1.56; in that of U39A A51U U72C A91G, 0.09; in that of C40U U57A A110G U132C, 0.14. Regarding U39C U57C U72A A94G C109U U132C, the self-cleavage was 0.04. U39A U43C A78U: the self-cleavage worked out at 0.36. With U38C U57C A64G, the self-cleavage was 0.57.

Consider U39C A118G U122G, for which the self-cleavage amounted to 1.78. For G41A A62G A63G U139C, the self-cleavage is 1.42.

Turning to U39C A60G A62G, the self-cleavage is 0.19. As to U38C U57A U108C A110U, the self-cleavage came to 0.02. Regarding U43A A59U U124C, the self-cleavage came to 0.16. U43A A59G A62G A64G: the self-cleavage was 2.84.

For U39A A51G A98G A116G, the self-cleavage amounted to 0.25. As to U43A A78U A82G, the self-cleavage was found to be 0.14. As to U38C U70A A90G A96G C121U, the self-cleavage stood at 2.19. In the case of U39A A51U A111G it was 0.03. Turning to U43A A86U A92C U103A, the self-cleavage is 1.66. As to U43A A67G A117G A140U, the self-cleavage came to 1.1. On to U39C A60U A89C U102C U139C, for which the self-cleavage was found to be 1.87. In the case of U39A A96U G123A, the self-cleavage was 1.74. As for U39C U43C A62G A89G U124C, the self-cleavage is 1.39.

Turning to U39A A116G U127C A135G, the self-cleavage amounted to 0.34. With U39C A114G A118G, the self-cleavage came out at 0.15. For U39C A60C A64G, the self-cleavage was 1. Take U39A A67G A78U: the self-cleavage came out at 0.3. As for U39A U49C A91G A117G A140U, the self-cleavage came to 0.37. As to U39C A52G C85U A125G, the self-cleavage worked out at 0.14. Turning to U38G A51G A98G, the self-cleavage was determined as 0.73.

Regarding C40U C46A A60G A62G A63G U87C A94G A118G U133C, the self-cleavage was determined as 0.5. In the case of C42A G53A A86G it was 1.3. In the case of U39C A64G A69G A110G, the self-cleavage turned out to be 0.2. As to U43A A94G U102C, the self-cleavage stood at 1.86. Regarding U39C A60G A63G A89G, the self-cleavage was 1.43. Turning to U39A A95G U122C U139C, the self-cleavage was found to be 2.15. Take U39C A60G U108C A126G: the self-cleavage was 0.01. Turning to U39C A78C A111U, the self-cleavage stood at 0.03. On to C42U U49C U57C G115A U139C, for which the self-cleavage worked out at 0.01.

Turning to U39C A55G A67G A116G, the self-cleavage turned out to be 1.05.

In the case of U38C U108C A116G U132C, the self-cleavage is 0.

As for U39A A56G A68G, the self-cleavage came to 1.6. For U39C A67U A111G, the self-cleavage was 0.01.

With U39C A51U A129G, the self-cleavage turned out to be 1.1. Consider C40U U102C A117U, for which the self-cleavage is 0.74.

In the case of U43A A52G U122C, the self-cleavage was 0.49.

Take U39A U100C U122A: the self-cleavage is 1.39.

On to U39C A69G U87C U127C A129G, for which the self-cleavage came to 0.54. With U39C A67G G115U A140G, the self-cleavage came out at 0.18.

As for U38C U49A A52G A69C U70A, the self-cleavage was 0.77.

On to U39C U72A U100C, for which the self-cleavage stood at 0.29.

Take U43C A51G A60C U102C: the self-cleavage came to 2.17. Regarding U39C A111G U130C, the self-cleavage was determined as 0.01. Regarding G41A A89G A110U U131C A135G, the self-cleavage came to 0.95. In the case of U43A A86G A96G C112U, the self-cleavage was 0.02.

For U39A A51G A126G U127C A129U, the self-cleavage is 0.22. Next, U39A A94G A126G: 1.86.

Turning to U43A A54G U139C, the self-cleavage came to 2.11.

For the variant C42U A98G U120C, the self-cleavage came to 0.26. In the case of U38C U108C A129G, the self-cleavage is 0. Consider U38C U72A U120C, for which the self-cleavage stood at 0.16.
